The text below walks through data of the supplement of paper PMC4166925.

± gives the standard deviation of the averaged measurements. Over roughly 33,000 sequences, “E-score (dimensionless, -0.5 to 0.5)” has its median near -0.046; the highest 2% begin near 0.36. The list shows a part of the results.

The test system of this assay is T1, SpTbr T-box DNA-binding domain (GST fusion).
T1 sequence: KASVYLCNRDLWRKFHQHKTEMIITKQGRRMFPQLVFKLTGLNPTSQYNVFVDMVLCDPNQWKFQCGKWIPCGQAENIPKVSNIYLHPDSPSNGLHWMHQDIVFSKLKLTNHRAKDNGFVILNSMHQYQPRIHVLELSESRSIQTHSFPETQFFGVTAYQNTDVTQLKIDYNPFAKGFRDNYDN
The assay can be described thus: PBM E-score of 8-mer (E-score (dimensionless, -0.5 to 0.5)); Tbr is Tbrain of the sea star Patiria miniata (Pm) or the sea urchin Strongylocentrotus purpuratus (Sp); higher = stronger binding preference; most listed sequences are background and not binding sites. The note with it: the construct has about 5 more residues each side. In a few lines: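 GST-fused Tbr T-box DNA-binding domains (the whole T-box plus about five flanking residues) were expressed in BL21 E. coli at 20 °C and purified by glutathione affinity chromatography. Universal Agilent oligonucleotide arrays were made double-stranded by primer extension, incubated with 200 nM protein in PBS (pH 7.5), then scanned and quantified. Every ungapped 8-mer was scored from probe intensities. The Universal PBM Analysis Suite gave each word an enrichment E-score, averaged over duplicate arrays.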
With GCCGGGGA, the “PBM E-score of 8-mer” value is -0.173 ± 0.018. For the sequence GGAGCCAA, the “PBM E-score of 8-mer” value amounted to 0.0118 ± 0.093. Consider AACGCGGA, for which the “PBM E-score of 8-mer” value is 0.0514 ± 0.021. Under ATTAGGGG stands -0.226 ± 0.009; under CGGTCCCA, 0.059 ± 0.0037.

For CCGGCGAA, the “PBM E-score of 8-mer” value is -0.221 ± 0.0083. For AATCCGGG the value was -0.0392 ± 0.026; for ACCCTGTC, 0.151 ± 0.019. With AGTAAGTA, the “PBM E-score of 8-mer” value was -0.0475 ± 0.018. As for CTCTCCCC, the “PBM E-score of 8-mer” value was -0.129 ± 0.015. Turning to CGTCACGA, the “PBM E-score of 8-mer” value came to 0.14 ± 0.056. Consider CGGCTACA, for which the “PBM E-score of 8-mer” value was -0.0194 ± 0.0012. On to GCTTTTCA, for which the “PBM E-score of 8-mer” value is 0.209 ± 0.015. For AGGCACTC, the “PBM E-score of 8-mer” value came to 0.063 ± 0.032. For AATAGATA, the “PBM E-score of 8-mer” value is -0.0733 ± 0.032. With GTCACGTA, the “PBM E-score of 8-mer” value was determined as 0.198 ± 0.037. Consider CTCGCGAG, for which the “PBM E-score of 8-mer” value was determined as 0.284 ± 0.03. AATGTTGT: the “PBM E-score of 8-mer” value was determined as 0.148 ± 0.074. Under GGAGCCAC stands -0.0195 ± 0.081; under ACTATTAT, -0.0641 ± 0.024. With ACTGGTTC, the “PBM E-score of 8-mer” value was determined as 0.0539 ± 0.022. On to CCGCTGCG, for which the “PBM E-score of 8-mer” value worked out at 0.0202 ± 0.025. For ATGGTCTC the value was -0.0511 ± 0.022; for ATCGAGCA, -0.223 ± 0.036. For CGCAGGCA, the “PBM E-score of 8-mer” value was -0.123 ± 0.019.

On to ATACGTAA, for which the “PBM E-score of 8-mer” value was determined as 0.0076 ± 0.052.

Consider CCAACCAG, for which the “PBM E-score of 8-mer” value was -0.16 ± 0.024. Turning to CAAATGGG, the “PBM E-score of 8-mer” value is -0.0206 ± 0.047.

In the case of CACGCCGA, the “PBM E-score of 8-mer” value was 0.107 ± 0.042.

With CCGACACG, the “PBM E-score of 8-mer” value was 0.253 ± 0.034.

In the case of ATGGGTGA, the “PBM E-score of 8-mer” value is 0.0601 ± 0.094.

With CTCTCTAC, the “PBM E-score of 8-mer” value was -0.0769 ± 0.028. As for GGGCACCA, the “PBM E-score of 8-mer” value is -0.0922 ± 0.092.

As for CGGTCGCA, the “PBM E-score of 8-mer” value turned out to be 0.291 ± 0.025. For GTTCCACA, the “PBM E-score of 8-mer” value amounted to 0.121 ± 0.13. As to TATACCAA, the “PBM E-score of 8-mer” value came to 0.0352 ± 0.047. As for AGTTCTCA, the “PBM E-score of 8-mer” value was found to be 0.323 ± 0.011. Regarding CGGCGAAG, the “PBM E-score of 8-mer” value was -0.11 ± 0.091. On to GTATTGAA, for which the “PBM E-score of 8-mer” value was -0.137 ± 0.036. For AAAAAATA, the “PBM E-score of 8-mer” value is -0.00716 ± 0.07. Regarding TCTGGCAA, the “PBM E-score of 8-mer” value is -0.143 ± 0.019. In the case of GCTATCAA, the “PBM E-score of 8-mer” value was 0.0426 ± 0.018. AGGTTATG: the “PBM E-score of 8-mer” value came to 0.0667 ± 0.015.

Consider CGCGCGTA, for which the “PBM E-score of 8-mer” value stood at 0.324 ± 0.018.

On to AACAAATC, for which the “PBM E-score of 8-mer” value was determined as 0.216 ± 0.048. With GTCTACCA, the “PBM E-score of 8-mer” value is -0.0512 ± 0.025. Take TGTCTCAA: the “PBM E-score of 8-mer” value came to 0.00493 ± 0.0047.

With AGCTCGAT, the “PBM E-score of 8-mer” value is -0.0805 ± 0.035.

On to GATCTGGA, for which the “PBM E-score of 8-mer” value is -0.0722 ± 0.016.

Regarding GAAGCTAA, the “PBM E-score of 8-mer” value worked out at 0.048 ± 0.042.

Regarding GCTACTCC, the “PBM E-score of 8-mer” value is -0.00537 ± 0.051.

With CTGTAAAA, the “PBM E-score of 8-mer” value is -0.00306 ± 0.069. For ACAGTATA the value was -0.0861 ± 0.017. GGCATCTA: the “PBM E-score of 8-mer” value is -0.107 ± 0.004. Take GGACGTCA: the “PBM E-score of 8-mer” value is -0.105 ± 0.021. Under ATTCTTAG stands -0.304 ± 0.03; under ACAAACTA, -0.132 ± 0.066; under ACACCCTG, 0.415 ± 0.024. As to AATTCTCG, the “PBM E-score of 8-mer” value was found to be 0.138 ± 0.035. On to CCCCCGTC, for which the “PBM E-score of 8-mer” value is -0.167 ± 0.12. For GGCATGAA the value was 0.00385 ± 0.053. Consider AGAACGCC, for which the “PBM E-score of 8-mer” value came out at 0.0924 ± 0.02.

In the case of AATGTAAT, the “PBM E-score of 8-mer” value was -0.102 ± 0.013. As to CCGCGTCC, the “PBM E-score of 8-mer” value was found to be 0.0057 ± 0.044.

On to GATTAACC, for which the “PBM E-score of 8-mer” value is -0.0771 ± 0.011. As to AATGCAAA, the “PBM E-score of 8-mer” value was -0.166 ± 0.078. As to ACGGCAAC, the “PBM E-score of 8-mer” value is 0.104 ± 0.051.

In the case of GATTATGC, the “PBM E-score of 8-mer” value is -0.271 ± 0.039.

For GATATAAA, the “PBM E-score of 8-mer” value is -0.141 ± 0.06.

AAGAACCT: the “PBM E-score of 8-mer” value is -0.239 ± 0.076. Turning to CCCGAGCG, the “PBM E-score of 8-mer” value was -0.0873 ± 0.051.

For the sequence CGTTGAGA, the “PBM E-score of 8-mer” value is 0.142 ± 0.022. For ACAACTTG the value was 0.284 ± 0.02. Regarding AGGCTTTC, the “PBM E-score of 8-mer” value stood at 0.0343 ± 0.046. Under CCTAATGA stands -0.208 ± 0.12; under ACTATTGG, 0.0761 ± 0.0044. For CTATGTCA, the “PBM E-score of 8-mer” value came out at 0.164 ± 0.0033. Under ACACCACA stands 0.364 ± 0.017; under ACCCTTGC, 0.00159 ± 0.011; under GTAATTAA, -0.0742 ± 0.051. With GGTATCTA, the “PBM E-score of 8-mer” value is -0.331 ± 0.011.

Regarding CTAACGTA, the “PBM E-score of 8-mer” value is -0.149 ± 0.076. For AGAGTGAC, the “PBM E-score of 8-mer” value amounted to 0.145 ± 0.013.

As for ACGCTCTC, the “PBM E-score of 8-mer” value was 0.0889 ± 0.032. Turning to TCATATGA, the “PBM E-score of 8-mer” value is -0.222 ± 0.034. Turning to AAGCAGCC, the “PBM E-score of 8-mer” value was -0.1561 ± 0.0003.

Turning to GGAAACGA, the “PBM E-score of 8-mer” value stood at 0.136 ± 0.07. As to AACCGGTT, the “PBM E-score of 8-mer” value turned out to be 0.097 ± 0.069. Turning to AATGCCAT, the “PBM E-score of 8-mer” value was -0.0961 ± 0.0098.

As for TCCGCCGA, the “PBM E-score of 8-mer” value is -0.00696 ± 0.084. Regarding AGAATTAA, the “PBM E-score of 8-mer” value was -0.0399 ± 0.14. Turning to CAGGTCAG, the “PBM E-score of 8-mer” value was -0.101 ± 0.015. For the sequence GCAGGTCA, the “PBM E-score of 8-mer” value is 0.036 ± 0.077. Turning to AACCGGGT, the “PBM E-score of 8-mer” value is -0.0581 ± 0.069. As for ACACAGAA, the “PBM E-score of 8-mer” value is -0.134 ± 0.016. With TATCCAGA, the “PBM E-score of 8-mer” value was -0.377 ± 0.015. CCGGGCCG: the “PBM E-score of 8-mer” value was -0.286 ± 0.037. For AACAGAAC the value was -0.104 ± 0.0089; for CACCTTAC, 0.413 ± 0.017; for AGGCTCTG, -0.186 ± 0.052. Regarding TAGAAGGA, the “PBM E-score of 8-mer” value is -0.284 ± 0.018. For ACACATGA the value was 0.251 ± 0.012; for ATAGCGTG, 0.11 ± 0.019; for ATTGATTC, -0.0102 ± 0.024.

Take AAATGGTG: the “PBM E-score of 8-mer” value was found to be 0.121 ± 0.0048. For TCAACTGA the value was 0.103 ± 0.0029; for AGGATAGC, -0.2131 ± 0.00059; for ACCGTCTG, -0.035 ± 0.066.

Take ATAGGTGC: the “PBM E-score of 8-mer” value worked out at 0.412 ± 0.012.
